Measured values reported in PubChem BioAssay AID624418 (National Center for Advancing Translational Sciences (NCATS), 2012).
Screen size: about 410,000 compounds; about 530 (0.13%) were called active. Inconclusive means that the source gave no clear call. Such entries were picked first, then a sample of the others. Calls come from the whole dose curve; as a rule, active = well fitted inhibition curve with a large enough effect; inconclusive = small, poorly fitted or top-dose-only effect, or another doubt; inactive = no such curve, though single readings can be large or run the other way. Potencies of inconclusive entries are doubtful fits and often do not repeat.
Potency is the fitted concentration of half-maximal effect.

Assay: qHTS of GLP-1 Receptor Inverse Agonists: Cytotox Screen
Conditions: HEK293 cAMP-luciferase reporter cells, luminescence, 24 h; series mostly up to 38.3 µM
Summary of the method: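 Step one: seed cells (200 cells/uL, DMEM with 10% Nu serum, 1% pen-strep). Step two: 12-hour incubation at 37 deg C. Step three: pin 23 nL compound, incubate 24 hr. Step four: add luciferase reagent, read luminescence 12 min later.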
With `CCNC(=O)c1cc2c(c(-c3cccc(-c4cc5ccccc5o4)c3)n1)[C@H](CCO)N(C(=O)NC(C)C)C2` the Potency was inconclusive: 11.2 µM [inhibitor, partial curve].
For `C[C@@H]1C[C@H](Nc2ccccc2)c2ccccc2N1C(=O)c1cccnc1`, the Potency was “inactive”.
In the case of `Cc1nc2cc(NC(=O)N3c4ccccc4CC3C)ccc2n1C` (stereo not drawn), the Potency is reported as inconclusive: 22.4 µM [inhibitor, single point].
For `C/C(=N\NC(=O)c1ccc(-c2ccccc2)cc1)C1C(=O)c2ccccc2C1=O`, the Potency was inconclusive: 4.47 µM [inhibitor, partial curve].
With `O=C(CCl)Nc1ccc(Sc2ccc(NC(=O)CCl)cc2)cc1` the Potency was inconclusive: 2 µM [inhibitor, full curve].
For `NS(=O)(=O)c1ccc(NC(=O)COC(=O)C2(c3ccccc3F)CCCC2)cc1`, the Potency was “inactive”.
With `CCc1ccc2[nH]cc(S(=O)(=O)c3ccc(C(C)C)cc3)c(=O)c2c1` the Potency was “inactive”.
With `CC1(C)CC(=O)C(Br)=C(O)C1` the Potency was inconclusive: 28.2 µM [inhibitor, single point].
For `CC1=NN(C(N)=S)C(=O)C1N=Nc1ccccc1` (stereo not drawn), the Potency was inconclusive: 0.891 µM [inhibitor, full curve, poor fit].
For `Cc1ccc(C)c(C(=O)CN2C3=NCCCN3c3ccccc32)c1`, the Potency was inconclusive: 3.98 µM [inhibitor, partial curve, poor fit].
With `O=C(COc1ccccc1Cl)Nc1ccc(OCc2cc(=O)n3ccsc3n2)cc1` the Potency was “inactive”.
With `CCCOC(=O)c1cccc(Nc2nc(CCC)cc(=O)[nH]2)c1` the Potency was “inactive”.
With `O=C(COC(=O)C1=COCCO1)Nc1ncc(C(F)(F)F)cc1Cl` the Potency was “inactive”.
For `COC(=O)c1cc2oc(C)cc2n1Cc1ccccc1Cl`, the Potency was “inactive”.
In the case of `Cc1cc(N(C)C)cc(C)c1N=Nc1cc[n+]([O-])cc1`, the Potency is reported as inconclusive: 10 µM [inhibitor, partial curve, poor fit].
For `OC(Cc1ccncc1)(c1ccccc1)c1ccccc1`, the Potency was inconclusive: 2.24 µM [inhibitor, partial curve].
With `COCCNC(=O)CCCn1c(SCC(=O)Nc2ccc(F)cc2)nc2c(sc3ccccc32)c1=O` the Potency was “inactive”.
For `C=CCNC(=O)NC(=S)c1ccccc1`, the Potency was inconclusive: 31.6 µM [inhibitor, single point].
In the case of `CCCCN1CCC(CN2C(=S)NC[C@@H]2CC(C)C)CC1`, the Potency is reported as “inactive”.
In the case of `COC(=O)[C@H]1[C@H](c2ccccc2)[C@H](C(=O)OC)O[C@H]1c1ccccc1`, the Potency is reported as inconclusive: 12.6 µM [inhibitor, single point].
In the case of `Brc1ccc(NC2=Nc3ccccc3CC2)cc1`, the Potency is reported as “inactive”.
With `Cc1ccc(-c2nc3ccccc3[nH]2)s1` the Potency was “inactive”.
In the case of `O=C(Nc1ccccn1)c1ccc(COc2ccccc2Cl)o1`, the Potency is reported as “inactive”.
For `O=S(=O)(c1ccccc1)N1CCN(C2CCN(Cc3ccccc3)CC2)CC1`, the Potency was “inactive”.
For `NC(N)=NS(=O)(=O)c1ccc(NC(=S)NC(=O)c2ccccc2)cc1`, the Potency was “inactive”.
For `O=C(c1cc2sccc2n1Cc1ccccc1)N1CCCc2ccccc21`, the Potency was “inactive”.
For `COC(=O)c1ccc2c(c1)C(C)(C)C(/C=C/c1ccc(OC)c(OC)c1OC)=[N+]2C`, the Potency was inconclusive: 3.16 µM [inhibitor, full curve].
With `CN(C)CCCN(C(=O)CCOc1ccccc1)c1nc2ccc(F)cc2s1` the Potency was active: 10 µM.
With `CCN(CC)CCCNc1nc2ccccc2c2[nH]c3ccc(OC)cc3c12` the Potency was inconclusive: 15.8 µM [inhibitor, partial curve, poor fit].
For `CCCn1ncc(CN2CCC(C(=O)Nc3cccc(-c4cccc(F)c4)c3)CC2)c1C`, the Potency was inconclusive: 22.4 µM [inhibitor, single point].
For `Cc1cccc(N2C(=O)C(Oc3ccc(Cl)cc3Cl)C2C=O)c1C` (stereo not drawn), the Potency was inconclusive: 11.2 µM [inhibitor, partial curve, poor fit].
For `CCOc1cc(N2CCCC2)ccc1[N+](=O)[O-]`, the Potency was inconclusive: 12.6 µM [inhibitor, partial curve, poor fit].
For `CC(=O)Nc1ccc(C2=NNC(=NCC3CCCO3)SC2)cc1` (stereo not drawn), the Potency was inconclusive: 31.6 µM [inhibitor, single point].
In the case of `COC(=O)c1ccc(C)c(NC(=S)NCc2ccc(Cl)cc2)c1`, the Potency is reported as “inactive”.
In the case of `CCOC(=O)c1c(C)n(CC(O)CN(C)C)c2cc(Br)c(OC)cc12` (stereo not drawn), the Potency is reported as “inactive”.
In the case of `NNC(=O)c1cccc(COc2ccc(Br)cc2)c1`, the Potency is reported as “inactive”.
With `CN1CCN(Cc2nc3ccccc3c(=O)n2Cc2nc(-c3ccc([N+](=O)[O-])cc3)cs2)CC1` the Potency was inconclusive: 25.1 µM [inhibitor, single point].
In the case of `CCn1ccc2cc(S(=O)(=O)N3CCCN(C(=O)Nc4ccccc4F)CC3)ccc21`, the Potency is reported as “inactive”.
In the case of `Cc1sc(NC(=O)CSc2nnc(COc3ccc(Cl)cc3)n2C)c(C#N)c1C`, the Potency is reported as inconclusive: 10 µM [inhibitor, partial curve, poor fit].
In the case of `CCOc1cnn(-c2cc(Oc3ccc(C)cc3)ncn2)c(=O)c1Cl`, the Potency is reported as “inactive”.
In the case of `O=C(N/N=C/c1sc(=O)n(Cc2ccc(Br)cc2)c1Cl)c1ccco1`, the Potency is reported as inconclusive: 28.2 µM [inhibitor, single point].
In the case of `Cc1cc(C)nc(N/N=C2/CCCC/C2=C\c2ccccc2)n1`, the Potency is reported as inconclusive: 2.51 µM [inhibitor, full curve, poor fit].
In the case of `CCn1c(CN2CCN(c3ccc(Cl)cc3)CC2)nc2ccccc21`, the Potency is reported as inconclusive: 22.4 µM [inhibitor, single point].
In the case of `Clc1ccc(N(CC2CO2)CC2CO2)cc1` (stereo not drawn), the Potency is reported as inconclusive: 2 µM [inhibitor, partial curve, poor fit].
In the case of `C/C=C(/C(=C/C)c1ccc(O)cc1)c1ccc(O)cc1`, the Potency is reported as inconclusive: 11.2 µM [inhibitor, single point].
In the case of `COC(=O)CSc1[nH]c2ccc(Br)cc2c1[N+](=O)[O-]`, the Potency is reported as “inactive”.
For `Cc1ccc(-c2cn3c(n2)sc2cc(C(=O)NCCCN4CCCCCC4)ccc23)cc1`, the Potency was inconclusive: 28.2 µM [inhibitor, single point].
With `CC1=NN(C(N)=S)C(=O)C1N=Nc1cccc([N+](=O)[O-])c1` (stereo not drawn) the Potency was inconclusive: 0.501 µM [inhibitor, full curve, poor fit].
